According to the supplement of paper PMC3334620:
In all, about 33,000 sequences were measured (“E-score (-0.5 to 0.5)”: median about -0.016, highest 2% from about 0.31 on). Some of the results follow.

Target: Cst6 (UniProt P40535)
Assay: PBM E-score (8-mer binding enrichment) (E-score (-0.5 to 0.5)); higher = stronger / more preferred TF binding; most listed sequences are background and not binding sites
Settings: protein concentration: 200 nM; construct: GST-DNA-binding domain
Method in brief: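 Yeast transcription factors, full-length or as DNA-binding domains, were expressed with a GST tag using PURExpress in vitro transcription/translation. At about 100-200 nM they were applied to universal all-10-mer Agilent arrays, double-stranded by primer extension on fresh or once-stripped slides. Fluorescent anti-GST detected bound protein, and masliner normalised the scans. E-scores for ungapped eight-base words, pooled with reverse complements, came from the Universal PBM Analysis Suite.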

Sequence | PBM E-score
CAGAGCGC | -0.103
AGATCCAT | -0.172
AAAATCGT | 0.178
GTTCGACA | 0.155
AGCTTTGG | -0.168
AAACAGAT | 0.204
ACGTAATG | 0.476
CTGTCTCA | -0.176
CAATATCC | 0.0594
CCGGCTCC | -0.31
AGGGCCAC | -0.187
AGTGCGGA | 0.167
AGGGTCCC | -0.326
ATCCCTGA | -0.023
GCGAAGCC | -0.263
CCGAAAAG | 0.0209
AGACTCCA | -0.203
AAGTACCA | -0.00592
TATAGGCA | -0.112
TAGTTGAA | 0.0809
TCACGCCA | 0.128
GTCCAAGA | -0.294

Sequence | PBM E-score
AATAATAA | 0.313
GCGTTTTA | 0.0306
CACGATAC | -0.133
AATTAAAT | 0.219
CAGCCGAG | -0.197
CCATTTCC | 0.0501
GCGAGCGC | -0.213
GCACTCAC | -0.131
GGCTTAAA | 0.115
CATTGGGC | -0.137
ATCCTTCA | 0.111
GACTTCAC | 0.0486
CGTCCACC | -0.231
AAAACAAT | 0.243
CTCTCAAA | 0.117
AAGCTGGT | -0.101
TGAAGCCA | -0.065
ATAACAGC | 0.193
CCACGTTC | -0.211
ATTGCTTG | -0.0329
GGTAAGGA | -0.0829
AATCCAGT | -0.0432

Sequence | PBM E-score
CAACAGGC | -0.192
CCTTAGGA | 0.036
TATTTCAA | 0.318
AGGTCTTG | -0.104
AAGGGGGA | -0.318
ATTGTATA | 0.218
TGGCAACA | 0.00122
CGGAGGAA | -0.344
AAAGTTGC | 0.104
TACCGTCA | 0.345
TAGCTCAA | -0.125
AGGGCCCC | -0.34
TGAGCGCA | -0.101
CGCCCAGA | -0.331
ACCGTTTG | 0.0108
AGGGGTCC | -0.378
CCTGGCGA | -0.314
GGAACGTA | -0.167
CGCGGAAG | -0.133
GCATTGCC | -0.126
AATAGTTC | 0.175
ACCGGTGC | -0.105

Sequence | PBM E-score
AATAACTC | 0.00793
CCGCTAAA | -0.0858
CCCAGCCC | -0.384
AAGTATCG | -0.0368
GGATCCAA | -0.0467
CATGATGA | 0.342
TACGCGAA | 0.135
AAGGCGGT | -0.0672
AGGCTAGG | -0.258
TTGCACAA | 0.0726
CGATCATC | 0.123
AGCATGTG | -0.174
GCCAGGCA | -0.0943
CACCCTTA | -0.097
ACGTCAAA | 0.389
GTATGATA | 0.277
AGCCTAAT | -0.0628
AATATTAA | 0.334
ATATATGA | 0.234
AACAACGC | 0.114
